This passage reports binding results from US20240317851A1 (LANOVA MEDICINES, published 2024).

B1: 97-C10E1-2 (antibody, V domains shown)
VH: EVQLQQSGPELVKPGASMKISCKASGYAFTGYTMNWVKQSHGKNLEWIGLSNPYNGGTIYNQKFKGKATLTVDKSSSTAYMELLSLTSEDSAVYYCARNYYYGSSYAYYYAMDYWGQGTSVTVSS
VL: QAVVTQESALTTSPGETVTLTCRSSTGAVTTSNYANWVQEKPDHLFTGLIGGTNNRAPGVPARFSGSLIGDKAALTITGAQTEDEAIYFCALWYSNHWVFGGGTKLTVL
notes: Tested as chimeric antibody; also called chimeric antibody 97-C10E1-2
B2: 67-C12E11 (antibody, V domains shown)
VH: EVQLQQSGPELVKPGASVKISCKTSGYTFTEYTMHWVKQSHGKSLEWIGGINPNNGGTSYNQKFKGKATLTVDKSSSTAYMELRSLTSEDSAVYYCARGMVVAFYFDSWGQGTTLTVSS
VL: DIQMTQSPASQSASLGESVTITCLASQTIGSWLAWYQQKPGKSPQLLIYAATSLADGVPSRFSGSGSGTKFSFKISSLQAEDFVSYYCQQLYSTPYTFGGGTKLEIK
notes: Tested as chimeric antibody
B3: 81-H10F8 (antibody, V domains shown)
VH: B2 VH with S77R, S108C
VL: B2 VL with S31T, S53G, S65G, A80V
notes: Tested as chimeric antibody
B4: 59-A2E6 (antibody, V domains shown)
VH: B2 VH with N54K, A79V, L83F, S88T, V101L, S108C
VL: B2 VL with S31T
notes: Tested as chimeric antibody
B5: 59-H12C5 (antibody, V domains shown)
VH: EVQLVESGGGLVQPGGSLKLSCAASGFTFSSHGMSWVRQTADRGLELVASINSNGGRTYYPDSMKGRFTISRDNAKNTLYLQLSSLQPEDTALYYCACYYDNTYYAMDYWGQGTSLTVSS
VL: QIVLTQSPAIMSASLGERVTMTCTASSSVSSSSLHWYQQKPGSSPKLWIYTTSTLASGVPARFSGSGSGTSYSLTISSMEAEDAATYYCHQYHRSPPTFGGGTKLEIK
notes: Tested as chimeric antibody
B6: 83-F6A6 (antibody, V domains shown)
VH: QVQLQQSAPELARPGASVRMSCKASGYTFTTYTMHWVKQRPGQGLEWIGFIIPSSGYTEYNQNLKDKTTLTADKASSTAYMQLTSLTSEDSAVYYCARQFSLITTGFGYALDYWGQGTSVTVSS
VL: DIVMTQSRKFMSTSVGDRVSITCKASQDVSTAVAWYQQKPGQSPKLLLYWASTRHTGVPDRFTGSGSGTDYTLTISSVQAEDLALYYCQQHYSTPLTFGAGTKLELK
notes: Tested as chimeric antibody
B7: 85-H10A5 (antibody, V domains shown)
VH: EVQLQQSGPELVKPGASVKISCKTSGYTFTEYPMHWVKQSHEKSLEWIGGINPKNGDANSNQKFKGKATLTVDKSSSTAYMELRSLTSEDSAVYYCARGWLLLFDVWGAGTMVTVSS
VL: DIQMTQSSSSFSVSLGDRVTISCKASEDIYNRLAWYQQKPGNAPRLLISGATSLETGIPSRFSGSGSGKDYTLSITTLQTEDVAAYYCQQYWSSPLTFGAGTKLELR
notes: Tested as chimeric antibody
B8: 97-C10E1-2-P1.z5 (antibody, V domains shown)
VH: QVQLVQSGAEVKKPGASVKVSCKASGYAFTGYTMNWVRQAPGQGLEWIGLSNPYNAGTIYNQKFKGRVTMTVDKSTSTVYMELSSLRSEDTAVYYCARNYYYGSSYAYYYAMDYWGQGTTVTVSS
VL: DIVVTQSPSSLSTSVGDRVTITCRSSTGAVTTSNYANWVQEKPGKAFKGLIGGTNNRAPGVPARFSGSLSGDDAALTISSAQPEDFATYFCALWYSNHWVFGGGTKVEIK
notes: also called candidate antibody
B9: 97-C10E1-2-P1.z2 (antibody, V domains shown)
VH: B8 VH
VL: EAVVTQSPATLSVSPGERATLSCRSSTGAVTTSNYANWVQEKPGQAFRGLIGGTNNRAPGIPARFSGSLSGDEATLTISSLQSEDFAVYFCALWYSNHWVFGGGTKVEIK

Positions count from the first letter of the chain named. Results are given in words; binding and its absence hold for the method and conditions named. Some entries that bind do so weakly or less than the wild type.

In the first experiment the target is T1, human Claudin 6 (human, UniProt P56747 1-220).
T1 sequence (looked up): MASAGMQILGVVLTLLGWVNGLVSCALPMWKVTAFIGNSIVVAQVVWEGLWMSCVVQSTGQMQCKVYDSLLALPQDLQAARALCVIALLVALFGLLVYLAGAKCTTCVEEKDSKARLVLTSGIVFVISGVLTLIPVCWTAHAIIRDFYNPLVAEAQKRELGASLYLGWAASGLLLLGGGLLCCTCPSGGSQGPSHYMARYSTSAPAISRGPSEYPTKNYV
Nature of the experiment: flow cytometry, Ovcar3 and Ov90 cells (endogenous CLDN6). On the technique in general: A flow cytometer gives signals particle by particle.
For the molecule B1, the binding entry was “binds”.

The next experiment deals with T1, human Claudin 6. As to the kind of experiment: flow cytometry, HEK293/H_CLDN6 cells.
Consider B2, for which the binding result was “binds”.

Turning to B3, the binding result is reported as “binds”.

On to B4, for which the binding entry is listed as “binds”.

Take B5: the binding entry was “binds”.

Consider B1, for which the binding entry is reported as “binds”.

For B6, the binding entry is given as “binds”.

Consider B7, for which the binding result is given as “binds”.

In a further experiment the target is T2, human Claudin 9 (human, UniProt O95484 1-217).
T2 construct: whole, on cells; also called CLDN9; CLND9
T2 sequence (looked up): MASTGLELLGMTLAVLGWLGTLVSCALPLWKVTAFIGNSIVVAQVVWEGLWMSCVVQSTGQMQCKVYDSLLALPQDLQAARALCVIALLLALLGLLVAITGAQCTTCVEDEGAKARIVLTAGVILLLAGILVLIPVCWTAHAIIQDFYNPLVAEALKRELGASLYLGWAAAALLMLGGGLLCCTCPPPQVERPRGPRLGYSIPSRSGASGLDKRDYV
Nature of the experiment: flow cytometry, HEK293/H_CLDN9 cells. How it is done:
In this example, cell-based binding of z5 toward human CLDN9 engineering expressing cells were assessed using flow cytometry.
Briefly, 2 cell lines were incubated with antibodies (from 100 nM, 6 folds dilution, 8 points) at 4° C. for 60 minutes. Cells were pelleted and washed twice with 2% FBS/PBS buffer, and stained with fluorescent conjugated secondary antibody at 4° C. for 30 minutes. After that the cells were washed twice and resuspended in 80 μL of 2% FBS/PBS buffer. Fluorescent signal of binding was detected using Agilent. The EC50 was calculated using the GraphPad software.
In the case of B5, the binding result is on record as “binds”.

As for B8, the binding entry was “no binding (tested: 100 nM (highest concentration tested))”.

For B9, the binding entry is “no binding (tested: 100 nM (highest concentration tested))”.

The target of a further experiment is T3, rat Claudin 6 (rat) (UniProt B4F7F0).
T3 sequence: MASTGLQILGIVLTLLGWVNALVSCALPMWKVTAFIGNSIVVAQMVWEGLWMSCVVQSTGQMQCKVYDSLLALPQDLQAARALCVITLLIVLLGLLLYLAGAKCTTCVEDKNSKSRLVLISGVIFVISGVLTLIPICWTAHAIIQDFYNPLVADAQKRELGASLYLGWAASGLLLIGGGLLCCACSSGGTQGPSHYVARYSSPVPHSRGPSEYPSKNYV
As to the kind of experiment: flow cytometry, engineered cells expressing rat CLDN6.
With B8, the binding entry is “binds”.
